Experimental data published in PubChem BioAssay AID360 (National Center for Advancing Translational Sciences (NCATS), 2006).
Out of some 48,000 compounds screened, about 550 (1.1%) were called active. Roughly 4% stayed inconclusive and do not appear here. Rule as the data show it: active = potency below about 15 µM; inconclusive = mostly about 16 µM to 33 µM; inactive = weaker than that. Some of the results follow.

Target: Lysosomal acid glucosylceramidase (Homo sapiens) (UniProt P04062)
Assay: Glucocerebrosidase;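 also: the screen sought inhibitors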
Conditions: purified enzyme, resorufin glucoside fluorescence (screen aimed at inhibitors), 20 min
Method in brief: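 Wild-type enzyme at 0.2 nM final in 50mM citric acid/KH2PO4, 10mM sodium taurocholate, 0.01% tween-20, pH 5.9, with resorufin beta-D-glucopyranoside at 30 uM final. Compounds titrated, 20 min at RT, red fluorescence read; AC50 from titration.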
Potency is read from the fitted curve at half-maximal effect.

UniProt P04062, sequence (P04062 whole entry, looked up): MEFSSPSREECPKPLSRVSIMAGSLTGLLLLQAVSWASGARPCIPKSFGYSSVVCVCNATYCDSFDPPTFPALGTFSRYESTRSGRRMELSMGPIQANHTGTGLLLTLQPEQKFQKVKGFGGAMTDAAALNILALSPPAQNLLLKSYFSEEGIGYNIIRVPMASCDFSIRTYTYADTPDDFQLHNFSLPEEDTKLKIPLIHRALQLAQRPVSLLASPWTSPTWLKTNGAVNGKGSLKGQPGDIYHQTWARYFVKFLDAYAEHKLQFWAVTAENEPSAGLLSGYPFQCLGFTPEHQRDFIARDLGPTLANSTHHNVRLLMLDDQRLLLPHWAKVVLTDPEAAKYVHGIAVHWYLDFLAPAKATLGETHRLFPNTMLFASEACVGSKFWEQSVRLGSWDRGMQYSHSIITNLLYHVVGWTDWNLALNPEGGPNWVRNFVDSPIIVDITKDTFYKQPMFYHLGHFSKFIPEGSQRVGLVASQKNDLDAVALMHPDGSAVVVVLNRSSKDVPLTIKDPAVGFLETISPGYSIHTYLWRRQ

Structure (SMILES) | Potency
O=C(NC1CCCC1)C(c1ccccc1F)N(C(=O)c1ccco1)C1CCCC1 (centres undefined) | inactive: > 76.9 µM
O=C(Nc1ccc(-n2cnnn2)cc1)C1CCCN1C(=O)NC1CCCCC1 (centres undefined) | inactive: > 76.9 µM
COC(=O)CSc1nnc(-c2ccccn2)n1Cc1ccco1 | inactive: > 76.9 µM
Cc1occc1-c1nnc(SCc2cc(=O)n3cc(Br)ccc3n2)n1C | inactive: > 76.9 µM
CCC(c1nnnn1CCc1ccccc1)N(Cc1ccco1)Cc1cc2cc(C)cc(C)c2[nH]c1=O (centres undefined) | inactive: > 76.9 µM
CC(=O)Nc1ccc(N/C=C/C(=O)c2ccc(C)o2)cc1 | inactive: > 76.9 µM
CCc1nc(SCC(=O)N2CCCC2)c2ccccc2n1 | inactive: > 76.9 µM
CCOC(=O)c1ccc(Nc2cc(C)nc(N3CCOCC3)n2)cc1 | active: 8.47 µM
Cc1cc(C)cc(-n2nnc(C(=O)NCc3ccco3)c2N)c1 | inactive: > 76.9 µM
Cc1c(NC(=O)c2cc(-c3ccccc3)on2)c(=O)n(-c2ccccc2)n1C | inactive: > 76.9 µM
CS(=O)(=O)N(CC(=O)N1CCOCC1)Cc1ccc(Cl)cc1 | inactive: > 76.9 µM
COc1ccc(N2CCN(C(=O)c3cccc(Cn4cc(Cl)cn4)c3)CC2)cc1 | inactive: > 76.9 µM
O=C1C2C(C(=O)N1Cc1ccco1)C1C=CC2C12CC2 (centres undefined) | inactive: > 76.9 µM
Cc1ccc(C)n1-n1c(C)nc2sc3c(c2c1=O)CCCCC3 | inactive: > 76.9 µM
CCOC(=O)Cn1cc(C(=O)C2CC2)c2ccccc21 | inactive: > 76.9 µM
CCN(CC)c1cccc(OCC(=O)N(C)CCC#N)c1 | inactive: > 76.9 µM
CC(Sc1cccc2cccc(C(=O)O)c12)C(=O)O (centres undefined) | inactive: > 76.9 µM
Cc1nnc(NCc2ccncc2)c2ccccc12 | inactive: > 76.9 µM
Cc1ccc(OCCN2CCN(C(=O)CCC(=O)Nc3nnc(C(C)C)s3)CC2)cc1 | inactive: > 76.9 µM
CCc1nc2ccccc2n1CCC(C)C | inactive: > 76.9 µM

Structure (SMILES) | Potency
Nc1nc(SCc2ccc3c(c2)OCCO3)n[nH]1 | inactive: > 76.9 µM
CCCn1cc(S(=O)(=O)CC(=O)N2CCc3ccccc32)c2ccccc21 | inactive: > 76.9 µM
CCOc1ccccc1NC(=O)C1CCN(c2ccc(S(=O)(=O)N3CCCC3)cc2)CC1 | inactive: > 76.9 µM
CC1(C)N=C(c2cccc(F)c2)C(=O)N1 | inactive: > 76.9 µM
Nc1nonc1-c1nc2ccccc2n1Cc1ccccc1 | inactive: > 76.9 µM
CC(=O)Nc1nonc1-n1nnc(C(=O)NCc2ccccc2)c1C | inactive: > 76.9 µM
Cc1cc(NCCCn2ccnc2)n2c(nc3ccccc32)c1C#N | inactive: > 76.9 µM
COc1ccc(CCNC(=O)CCn2c(SCC#N)nc3ccccc3c2=O)cc1OC | inactive: > 76.9 µM
COc1ccccc1C1N(c2ccc(Cl)cc2)C(=O)C2CCCN21 (centres undefined) | inactive: > 76.9 µM
OCc1nc2ccccc2n1CC(O)Cn1ccc2ccccc21 (centres undefined) | inactive: > 76.9 µM
COc1ccc(NC(=O)C2OCCc3ccccc32)c(OC)c1 (centres undefined) | inactive: > 76.9 µM
O=C1CC(c2ccc3c(c2)OCO3)c2cc3c(cc2N1)OCO3 (centres undefined) | inactive: > 76.9 µM
O=C(O)CCN1CCc2ccccc21 | inactive: > 76.9 µM
CN(CC(=O)N1CCc2ccccc21)S(=O)(=O)c1ccc(Br)s1 | inactive
COc1ccc(CCNC(=O)C2CCN(S(=O)(=O)N3CCOCC3)CC2)cc1OC | inactive: > 76.9 µM
COc1ccc(-c2nnc(SCCOc3cccc(C)c3)n2N)cc1 | inactive: > 76.9 µM
CCN(Cc1ccccc1)S(=O)(=O)c1ccc2oc(C(=O)O)c(C)c2c1 | inactive: > 76.9 µM
COC(=O)c1sc2nc3c(cc2c1N)C(=O)CC(C)(C)C3 | inactive: > 76.9 µM
Cc1cccc(NC(=O)CCN2CCN(C/C=C/c3ccccc3)CC2)c1 | inactive: > 76.9 µM
Cc1ccc(C)c(NC(=O)CSc2nnc(-c3ccccc3C)o2)c1 | inactive: > 76.9 µM

Structure (SMILES) | Potency
CCOC(=O)/C(C#N)=C1/CCCCCN1C | inactive: > 76.9 µM
COc1ncnc2c1N[C@@](C)(O)c1c(F)c(F)c(F)c(F)c1S2 | inactive: > 76.9 µM
COc1ccccc1NC(=O)Nc1c(C)n(C)n(-c2ccccc2)c1=O | inactive: > 76.9 µM
Cc1nc(-c2ccccc2)nc2[nH]c(=O)n(-c3ccccc3)c(=O)c12 | inactive: > 76.9 µM
COc1ccc(C2C(C(=O)Nc3cccc(C)n3)CCC(=O)N2c2ccc(OC)cc2)cc1 (centres undefined) | inactive: > 76.9 µM
COc1ccc(-c2[nH]nc3oc(=O)cc(C)c23)cc1 | inactive: > 76.9 µM
CCOC(=O)N1CCN(c2cc(=O)n(-c3ccc(OC)cc3)c(=O)[nH]2)CC1 | inactive: > 76.9 µM
COc1ccc(Cc2nnc(SCc3nc4ccccc4c(=O)[nH]3)o2)cc1 | inactive: > 76.9 µM
COc1ccc2cc3cc(C(=O)NCCN4CCN(Cc5ccccc5)CC4)oc3nc2c1 | inactive: > 76.9 µM
CC12CC(NC(=O)N1c1cccc(C(=O)N3CCN(c4ccccc4)CC3)c1)c1ccccc1O2 (centres undefined) | inactive: > 76.9 µM
Cc1cc(NC(=O)c2noc3c2CCCCC3)no1 | inactive: > 76.9 µM
CCN1C(=O)/C(=C\N2CCCc3ccccc32)SC1=S | inactive: > 76.9 µM
COc1ccc(-c2nnc3sc(CCN4C(=O)c5ccccc5C4=O)nn23)cc1 | inactive
COc1cc2c(cc1OC)CN(C(=O)Cc1ccc(OC)c(S(=O)(=O)N3CCOCC3)c1)CC2 | inactive: > 76.9 µM
COc1ccc(OC)c(C(=O)COC(=O)CNC(=O)C2CCCCC2)c1 | inactive: > 76.9 µM
Cc1ccccc1Nc1nnc(C)c(=O)[nH]1 | inactive
CCOC(=O)C1=C(C)NC(=O)NC1c1c(C)nn(-c2ccccc2)c1Cl (centres undefined) | inactive: > 76.9 µM
CC1CCN(c2oc(Cc3cccc4ccccc34)nc2C#N)CC1 | inactive: > 76.9 µM
CC(C)C[C@H](N)c1nnc(S(=O)(=O)Cc2ccc(F)cc2)o1 | inactive: > 76.9 µM
